# Measurements reported in the supplement of paper PMC11417369.
# Some of the results follow.
# Tested on: PfSIP2 AP2 domain 1 (GST-tagged)
# Assay: gcPBM binding intensity (ln(normalized median fluorescence intensity)); higher = stronger DNA binding
# Outline: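 GST-tagged P. falciparum DNA-binding domains produced in E. coli were incubated for 1 h on an Agilent 4 × 180k array of primer-extended double-stranded 36-bp intergenic genomic probes with negative controls. Binding intensity is the highest Masliner-normalised natural-log median intensity across replicate spots of either probe orientation, with bound protein detected by Alexa488 anti-GST antibody at 488 nm.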
row,Sequence,gcPBM binding intensity (ln)
1,ATTTTAACCAATTATTGTACTTGGTTATTCTTTTTT [XGTACX_site7453],6.76
2,ATATTTTTTTTCTTCACACACATGAATTATATATAA [CACACA_site3216],7.39
3,CATATTAAAAATACATGTACATATATATTTAATATA [XGTACX_site8580],7.15
4,GTTAAAATAATATTATGTACATATATATAAAAATAT [XGTACX_site8512],7.15
5,TATAAATATGTGTTTACACACAATAATGAATTAAAA [CACACA_site6555],6.76
6,GTTTGTAAATATTTTACACACATATTTATTTATATA [CACACA_site6632],6.73
7,AACCTCAAATACACAAGTACGTATAATAAGGAACAA [XGTACX_site4304],7.17
8,ATGGAAAAATGTATATATAAAATAAATATATTATAT [CACACA_negctrl_site1712],6.72
9,TACAGAAATTTATATATATATATATATATATATATA [XGTACX_negctrl_site209],9.26
10,AAATCAAAAACGTTTACACACATTCTTATTTAAATA [CACACA_site790],7.08
11,TGAGACATGAATGCAAGTACAAAAAGGAGAACAAAA [XGTACX_site6183],7.24
12,TACATATATTTTTTATGTACTTACTTGTGTGTTTAT [XGTACX_site5126],7.09
13,TTTTATAATTTCAAAGGATTCTTTAATATTATAAAT [CACACA_negctrl_site1812],6.7
14,AAATTATATATAATAAATAATTTCTTTTTCTAAAAG [CACACA_negctrl_site8],6.73
15,AAAAAAAAAAAAAAAAGTACACACTTTTGCCTACAT [XGTACX_site6583],7.78
16,AATAATTGCTAAAGGTGTACAATACGTATATAAGAA [XGTACX_site4910],7.29
17,TTAATAACAAAATAAACACACATATATAAATACACA [CACACA_site6849],7.03
18,TTATATTTTTTTTGTAGTACATTATAGAATACACAC [XGTACX_site969],7.37
19,AAATGTTGAAATGATACACACATATATATATATATA [CACACA_site2517],9.59
20,TTTATTAAAACAAAATGTACACACATATAATTTAAT [XGTACX_site1637],6.95
21,TAAATTCTGTTTAAAAGTACAAATAATATTGTGCCT [XGTACX_site7805],6.88
22,TTAATCTTCATAAAATGTACAGAAGATTGAATATTC [XGTACX_site6213],6.75
23,TGAAAGTGTATTAAAGTGCATATTATTTTATCTACC [GTGCAC_site9969],8.23
24,ATAATATTTTATAATTGTACTTTTTATAAATATAAA [XGTACX_site1940],6.98
